{"source": "PubChem BioAssay AID1379", "about": "(National Center for Advancing Translational Sciences (NCATS), 2008)", "note": "Among all 200,000 compounds or so, about 560 (0.28%) were called active. Inconclusive results, whose numbers are uncertain, are shown with a selection of clear calls. Calls come from the whole dose curve; as a rule, active = well fitted inhibition curve with a large enough effect; inconclusive = small, poorly fitted or top-dose-only effect; inactive = flat fitted curve, though single readings scatter. Potencies of inconclusive entries are left out as doubtful fits. Potency is the fitted concentration of half-maximal effect; tags give direction and shape of the fitted curve."}
{"biological_target": "Luciferin 4-monooxygenase (Photuris pensylvanica) (UniProt Q27757)", "assay": "Counterscreen for Luciferase (Kinase-Glo TM) Inhibition; note: nearly all actives have a fitted effect of over 60% in size", "conditions": "ATP luminescence, 8 min; series mostly up to 38.3 µM", "procedure,_shortened": "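Recombinant Kinase-Glo luciferase, 10 uM ATP (linear range), luciferin; imidazole pH 7.2 / KCl / MgCl2 / Tween / BSA buffer; 8 min RT; luminescence.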"}
{"smiles": "Cc1ccc(/C=N/Nc2ccc(C(=O)O)cc2)s1", "Potency": "inconclusive [inhibitor, partial curve]"}
{"smiles": "CSc1ncccc1C(=O)OCc1ccccc1Cl", "Potency": "inconclusive [inhibitor, single point]"}
{"smiles": "O=C(Nc1cnc2ccccc2c1)c1ccncc1", "Potency": "inconclusive [inhibitor, single point]"}
{"smiles": "O=C(Nc1ccccc1)Nc1ccc(C(=O)N2CCOCC2)cc1", "Potency": "active: 3.16 µM"}
{"smiles": "COCCNC(=O)c1ccccc1NC(=O)Nc1ccccc1", "Potency": "inconclusive [inhibitor, partial curve]"}
{"smiles": "O=C(COC(=O)c1ccccc1[N+](=O)[O-])c1ccc(C2CCCCC2)cc1", "Potency": "active: 11.2 µM"}
{"smiles": "Cc1nc(NC(=O)c2ccccc2)sc1-c1csc(Nc2cccc(F)c2)n1", "Potency": "inactive"}
{"smiles": "CCNC(=S)NNC(=O)c1cc(-c2cccnc2)nc2ccccc12", "Potency": "inconclusive [inhibitor, partial curve]"}
{"smiles": "O=[N+]([O-])c1ccc(N/N=C/c2cn(-c3ccccc3)nc2-c2ccccc2)cc1", "Potency": "inconclusive [inhibitor, partial curve]"}
{"smiles": "Cn1c(=NC(=O)c2ccco2)sc2ccccc21", "Potency": "inconclusive [inhibitor, partial curve]"}
{"smiles": "NC(=O)c1ccc[n+]([C@@H]2OC(COP(=O)([O-])OP(=O)(O)OCC3OC(n4cnc5c(N)ncnc54)C(OP(=O)(O)O)C3O)C(O)C2O)c1", "note": "(some centres undefined)", "Potency": "inconclusive [inhibitor, single point]"}
{"smiles": "CCOc1ccc(/C=N/NC(=O)c2ccccc2NC(=O)c2ccc(OC)cc2)cc1", "Potency": "inconclusive [inhibitor, single point]"}
{"smiles": "CCN1C(=O)/C(=C2/C=Cc3cc(C)ccc3N2CC)N(C)C1=S", "Potency": "active: 10 µM"}
{"smiles": "COc1ccccc1OCc1nc2ccccc2s1", "Potency": "inconclusive [inhibitor, partial curve]"}
{"smiles": "O=c1c2c(nc3cc(-c4ccc(F)cc4)[nH]n13)CCC2", "Potency": "inconclusive [inhibitor, partial curve]"}
{"smiles": "COc1ccccc1/C=C1/SC(=O)N(CCC(=O)Nc2ccc(S(=O)(=O)Nc3nccs3)cc2)C1=O", "Potency": "inactive"}
{"smiles": "COc1cc(OC)cc(-c2cc3nc(C)c(CCC(=O)O)c(=O)n3[nH]2)c1", "Potency": "inconclusive [inhibitor, partial curve]"}
{"smiles": "CCOC(=O)c1[nH]c2ccc(OC)cc2c1NC(=S)N1CCN(c2ccc(F)cc2)CC1", "Potency": "inactive"}
{"smiles": "CC(C)(C)c1ccc(-c2nnc(SCC(=O)NC3CCS(=O)(=O)C3)n2N)cc1", "note": "(centres undefined)", "Potency": "inconclusive [inhibitor, single point]"}
